In patent publication US20250223331A1, “GLP-1/GIP DUAL-TARGETED POLYPEPTIDE AND FUSION PROTEIN AND APPLICATIONS THEREOF” (SUNSHINE LAKE PHARMA CO., LTD., priority 2021, published 2025):
Where a chain is given by its changes, count along the chain named.

T1: GIPR (UniProt P48546 22-466, limits assumed)
T1 sequence (looked up): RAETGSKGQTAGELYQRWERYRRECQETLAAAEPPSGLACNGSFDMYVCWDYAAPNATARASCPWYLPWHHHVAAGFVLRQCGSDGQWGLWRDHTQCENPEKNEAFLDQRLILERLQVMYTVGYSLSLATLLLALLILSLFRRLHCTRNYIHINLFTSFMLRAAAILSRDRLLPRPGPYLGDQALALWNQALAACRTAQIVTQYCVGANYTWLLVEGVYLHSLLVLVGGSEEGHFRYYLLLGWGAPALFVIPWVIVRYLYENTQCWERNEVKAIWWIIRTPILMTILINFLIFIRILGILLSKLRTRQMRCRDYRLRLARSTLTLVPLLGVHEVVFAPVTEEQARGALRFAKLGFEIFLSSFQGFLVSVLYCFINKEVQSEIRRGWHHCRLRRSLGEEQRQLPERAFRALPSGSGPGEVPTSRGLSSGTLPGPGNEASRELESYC

B1: HEC-G69 (Fc fusion)
chain: YGEGTFTSDYSIYLDKLAQQDFVEWLLAGGPSSGAPPPSGGGGSGGGGSGGGGSA[here human IgG4 Fc with S228P F234A L235A (EU numbers) without letters]
B2: HEC-G70 (Fc fusion)
chain: B1 chain with L17K, Q20R, D21E
B3: HEC-G71 (Fc fusion)
chain: B1 chain with L17K, Q20R, D21E, V23I, E24D
B4: HEC-G72 (Fc fusion)
chain: B1 chain with L17K, Q20R, V23I, E24D
B5: HEC-G73 (Fc fusion)
chain: B1 chain with L17K, Q20R, D21A, V23I, E24D
B6: HEC-G74 (Fc fusion)
chain: B1 chain with L17K, Q20R, V23I, L27I, G29Q
B7: HEC-G75 (Fc fusion)
chain: B1 chain with L17K, Q20R, L27I, G29Q
B8: HEC-G76 (Fc fusion)
chain: B1 chain with L17K, Q20R, E24Q
B9: HEC-G77 (Fc fusion)
chain: B1 chain with Y13I, L17K, Q20R
B10: HEC-G78 (Fc fusion)
chain: B1 chain with Y13A, L17K, Q20R, V23I, L27I
B11: HEC-G81 (Fc fusion)
chain: B1 chain with Y13A, L17Q, Q20R, L27I
B12: HEC-G82 (Fc fusion)
chain: B1 chain with L17Q, Q20R, G29Q
B13: HEC-G83 (Fc fusion)
chain: B1 chain with L17I, Q20R, L27I
B14: HEC-G84 (Fc fusion)
chain: B1 chain with L17Q, A18H, Q20R, L27I
B15: HEC-G85 (Fc fusion)
chain: B1 chain with L17K, Q20R, V23I, E24N, L27I
B16: HEC-G86 (Fc fusion)
chain: B1 chain with L17K, A18H, Q20R, V23I, L27I
B17: HEC-G87 (Fc fusion)
chain: B1 chain with L17I, Q20R, V23I, L27I
B18: HEC-G88 (Fc fusion)
chain: B1 chain with L17K, V23I, L27I
B19: HEC-G89 (Fc fusion)
chain: B1 chain with Y13A, L17Q, Q20R
B20: HEC-G90 (Fc fusion)
chain: B1 chain with L17Q
B21: HEC-G91 (Fc fusion)
chain: B1 chain with L17I, Q20R
B22: HEC-G92 (Fc fusion)
chain: B1 chain with L17Q, Q20R, E24N
B23: HEC-G93 (Fc fusion)
chain: B1 chain with L17I, D21A
B24: HEC-G94 (Fc fusion)
chain: B1 chain with L14M, D21A
B25: HEC-G95 (Fc fusion)
chain: B1 chain with D21A, E24N
B26: HEC-G96 (Fc fusion)
chain: B1 chain with G2S, L17I, Q20R
B27: HEC-G97 (Fc fusion)
chain: B1 chain with G2S, Y13A, L17K, Q20R
B28: HEC-G98 (Fc fusion)
chain: B1 chain with G2S, L17K
B29: HEC-G99 (Fc fusion)
chain: B1 chain with Y13A, L17K, Q20R, V23I, E24D
B30: HEC-G100 (Fc fusion)
chain: B1 chain with L17K, Q20R, V23I, E24N
B31: HEC-G101 (Fc fusion)
chain: B1 chain with L17K, V23I, E24D
B32: HEC-G102 (Fc fusion)
chain: B1 chain with L17K, Q20R, V23I, E24N, L27I, G29Q
B33: HEC-G103 (Fc fusion)
chain: B1 chain with Y13A, L17K, Q20R, V23I, L27I, G29Q
B34: HEC-G104 (Fc fusion)
chain: B1 chain with L17K, V23I, L27I, G29Q
B35: HEC-G105 (Fc fusion)
chain: B1 chain with L17I, Q20R, V23I, L27I, G29Q
B36: HEC-G106 (Fc fusion)
chain: B1 chain with Y13L, L17K, Q20R
B37: HEC-G107 (Fc fusion)
chain: B1 chain with L17K, Q20H
B38: HEC-G112 (Fc fusion)
chain: B1 chain with L17Q, Q20H, D21A, V23I, L27I
B39: HEC-G113 (Fc fusion)
chain: B1 chain with Y1H, G2S, Y13L, L17I
B40: HEC-G114 (Fc fusion)
chain: B1 chain with Y1H, G2S, Y13L, L17I, Q20H, V23I, L27I
B41: HEC-G115 (Fc fusion)
chain: B1 chain with G2S, Y13L, L17I, Q20R, D21E, V23I
B42: HEC-G116 (Fc fusion)
chain: B1 chain with Y1H, G2S, Y13L, L17I, Q20R, D21E, V23I
B43: HEC-G117 (Fc fusion)
chain: B1 chain with Y1H, G2S, Y13L, L17I, Q20R, D21E, V23I, A28E
B44: HEC-G118 (Fc fusion)
chain: B1 chain with Y1H, G2S, Y13L, L17I, Q20K, D21E, V23I
B45: HEC-G119 (Fc fusion)
chain: B1 chain with G2S, Y13L, L17I, Q20K, D21E, V23I
B46: HEC-G120 (Fc fusion)
chain: B1 chain with Y1H, G2S, Y13L, L17I, Q20K, D21E, V23I, A28E
B47: HEC-G121 (Fc fusion)
chain: B1 chain with G2S, Y13L, L17I, Q20R, D21A, V23I
B48: HEC-G122 (Fc fusion)
chain: B1 chain with G2S, Y13L, L17I, Q20R, D21E, V23I, L27I
B49: HEC-G123 (Fc fusion)
chain: B1 chain with G2S, Y13L, L17I, Q20R, D21E, E24Q

Assays:
[1] = target: GLP-1R (UniProt P43220); assay: cell-based or functional assay
[2] = target: T1, GIPR; assay: cell-based or functional assay

Binder | EC50, cAMP [1] | EC50, cAMP [2]
B1 | 38.9 nM | 0.332 nM
B2 | 0.684 nM | 3.88 nM
B3 | 0.252 nM | 1.04 nM
B4 | 0.281 nM | 0.372 nM
B5 | 0.155 nM | 5.93 nM
B6 | 2 nM | 0.552 nM
B7 | 0.876 nM | 1.82 nM
B8 | 0.714 nM | 5.01 nM
B9 | 3.88 nM | 4.84 nM
B10 | 0.226 nM | 1.08 nM
B11 | 0.427 nM | 0.922 nM
B12 | 6.53 nM | 0.172 nM
B13 | 0.125 nM | 0.732 nM
B14 | 6.03 nM | 8.97 nM
B15 | 0.045 nM | 0.326 nM
B16 | 0.651 nM | 5.5 nM
B17 | 0.127 nM | 0.266 nM
B18 | 0.155 nM | 0.258 nM
B19 | 2.66 nM | 0.288 nM
B20 | 105 nM | 0.945 nM
B21 | 5.7 nM | 2.15 nM
B22 | 1.64 nM | 0.677 nM
B23 | 8.59 nM | 0.437 nM
B24 | 8.28 nM | 0.255 nM
B25 | 16.1 nM | 2.22 nM

Binder | EC50, cAMP [1] | EC50, cAMP [2]
B26 | 3.66 nM | 0.547 nM
B27 | 4.38 nM | 0.825 nM
B28 | 18.1 nM | 0.321 nM
B29 | 1.94 nM | 1.14 nM
B30 | 0.211 nM | 0.464 nM
B31 | 7.47 nM | 0.177 nM
B32 | 0.378 nM | 0.545 nM
B33 | 4.92 nM | 1.22 nM
B34 | 14.9 nM | 0.762 nM
B35 | 6.95 nM | 1.92 nM
B36 | 0.945 nM | 0.477 nM
B37 | 6.47 nM | 0.235 nM
B38 | 0.268 nM | 0.564 nM
B39 | 0.395 nM | 0.066 nM
B40 | 0.047 nM | 0.034 nM
B41 | 1.08 nM | 0.042 nM
B42 | 0.042 nM | 0.034 nM
B43 | 0.047 nM | 0.032 nM
B44 | 0.076 nM | 0.039 nM
B45 | 8.74 nM | 0.025 nM
B46 | 0.092 nM | 0.071 nM
B47 | 0.417 nM | 0.036 nM
B48 | 0.155 nM | 0.023 nM
B49 | 1.05 nM | 0.012 nM
